B1: lolA M112A (protein)
chain: MKKIAITCALLSSLVASSVWADAASDLKSRLDKVSSFHASFTQKVTDGSGAAVQEGQGDLWVKRPNLFNWHMTQPDESILVSDGKTLWFYNPFVEQATATWLKDATGNTPFALIARNQSSDWQQYNIKQNGDDFVLTPKASNGNLKQFTINVGRDGTIHQFSAVEQDDQRSSYQLKSQQNGAVDAAKFTFTPPQGVTVDDQRK
B2: lolA F37W (protein)
chain: B1 chain with F37W, A112M
B3: lolA L113A (protein)
chain: B1 chain with A112M, L113A
B4: lolA L113Q (protein)
chain: B1 chain with A112M, L113Q
B5: lolA I114A (protein)
chain: B1 chain with A112M, I114A
B6: lolA M112D (protein)
chain: B1 chain with A112D
B7: lolA F37Q (protein)
chain: B1 chain with F37Q, A112M
B8: lolA F37A (protein)
chain: B1 chain with F37A, A112M
B9: lolA M112Q (protein)
chain: B1 chain with A112Q
B10: lolA M112W (protein)
chain: B1 chain with A112W
B11: aroB V273W (protein)
chain: MERIVVTLGERSYPITIASGLFNEPASFLPLKSGEQVMLVTNETLAPLYLDKVRGVLEQAGVNVDSVILPDGEQYKSLAVLDTVFTALLQKPHGRDTTLVALGGGVVGDLTGFAAASYQRGVRFIQVPTTLLSQVDSSVGGKTAVNHPLGKNMIGAFYQPASVVVDLDCLKTLPPRELASGLAEVIKYGIILDGAFFNWLEENLDALLRLDGPAMAYCIRRCCELKAEVVAADERETGLRALLNLGHTFGHAIEAEMGYGNWLHGEAVAAGMWMAARTSERLGQFSSAETQRIITLLKRAGLPVNGPREMSAQAYLPHMLRDKKVLAGEMRLILPLAIGKSEVRSGVSHELVLNAIADCQSA
B12: aroB L39W (protein)
chain: B11 chain with L39W, W273V
B13: aroB V273D (protein)
chain: B11 chain with W273D
B14: aroB V273P (protein)
chain: B11 chain with W273P
B15: aroB V273Q (protein)
chain: B11 chain with W273Q
B16: aroB L39A (protein)
chain: B11 chain with L39A, W273V

Changes are numbered by the printed parent chain. Numbers in names are those of the source. ± gives the standard deviation of the averaged measurements. Laboratory Escherichia coli strains with one amino-acid change in an essential protein, pooled on minimal glucose agar with carbenicillin or gentamicin at twice the control MIC (plus kanamycin and chloramphenicol for the plasmids), 48 h. Fold change of barcode share against drug-free plates; higher = less susceptible. Active = above 20 in both replicates (the paper's putatively resistant). '<' = one read or none on drug, '>' = one read or none on a drug-free plate. Shares are relative, so most strains fall below 1 when a few take over. Listed are strains with at least 15 reads on both drug-free plates, and hits; most hits rest on fewer reference reads. Replicate rank correlation about 0.5. Edits are read from barcodes.

The first series addresses Escherichia coli (laboratory strain). As to the kind of experiment: barcode share on antibiotic plates over drug-free plates; higher = less susceptible. To be noted: antibiotic: carbenicillin; 2× MIC (3.1 µg/mL). As to the method: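 A pool of E. coli strains, each edited to carry one amino-acid change in an essential protein, was grown for 48 h on minimal glucose agar with or without antibiotic; strain barcodes were sequenced; mean of two replicates.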
Regarding B1, the “fold change of barcode share” value was determined as 0.161 ± 0.076.
On the same count and under the same terms, for B2 the value was 0.315 ± 0.12; for B3, 0.283 ± 0.12.
On the same count and under the same terms, the same measure for B4: 0.339 ± 0.045.
On the same count and under the same terms, for B5 the value was 0.255 ± 0.17; for B6, 1.56 ± 1.6; for B7, 0.6 ± 0.46.
As for B8, the “fold change of barcode share” value was 0.403 ± 0.33.
On the same count and under the same terms, the same measure for B9: 0.221 ± 0.023; for B10: 0.198 ± 0.055; for B11: 1.77 ± 0.45.
Still for that read-out and setting: for B12 the value was 0.616 ± 0.008.
B13: the “fold change of barcode share” value worked out at 1.15 ± 0.11.
Still for that read-out and setting: the same measure for B14: 1.3 ± 0.32; for B15: 4.2 ± 1.7.
Same read-out and setting: for B16 the value was 0.478 ± 0.068.

Still in this series, the particulars now being: antibiotic: gentamicin; 2× MIC (MIC 0.45 µg/mL).
As to B1, the “fold change of barcode share” value is under 0.0219.
On to B2, for which the “fold change of barcode share” value was 0.0169 ± 0.0093.
On to B5, for which the “fold change of barcode share” value was under 0.0128.
Still for that read-out and setting: for B7 the value was under 0.00611.
Still for that read-out and setting: for B8 the value was under 0.015.
Still for that read-out and setting: for B9 the value was 0.0188 ± 0.0053; for B10, under 0.0131; for B11, 0.0483 ± 0.021.
As to B12, the “fold change of barcode share” value came out at 0.0182 ± 0.0035.
On the same count and under the same terms, for B13 the value was 0.0192 ± 0.011; for B14, 0.0308 ± 0.034.
Still for that read-out and setting: for B15 the value was 0.086 ± 0.069; for B16, 0.0164 ± 0.0053.
